In the supplement of paper PMC4967469:

Assays:
Assay in all cases: Viability of human cancer cell lines after 72 h of drug (GDSC screen)
Thapsigargin = compound: C/C=C(/C)C(=O)O[C@H]1C(C)=C2[C@H]([C@@H]1OC(=O)CCCCCCC)[C@@](C)(OC(C)=O)C[C@H](OC(=O)CCC)[C@@]1(O)[C@H]2OC(=O)[C@@]1(C)O [Thapsigargin]; details: top dose 0.512 µM; top dose inferred
Procedure: (§1)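 Human cancer cell lines in 384-well plates, medium with 10% serum, drug for 72 h over a 256-fold dose range (nine 2-fold or five 4-fold steps up to the top dose). Adherent lines were fixed and stained with the nucleic acid dye Syto60, suspension lines read with resazurin; signal relative to control wells, capped at 0 and 100%. One two-parameter sigmoid per drug and line, fitted in a mixed model over all curves with the slope shared within a line.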

CHIR-99021 = compound: Cc1cnc(-c2cnc(NCCNc3ccc(C#N)cn3)nc2-c2ccc(Cl)cc2Cl)[nH]1 [CHIR-99021]
Procedure: as §1

ABT-869 = compound: Cc1ccc(F)c(NC(=O)Nc2ccc(-c3cccc4[nH]nc(N)c34)cc2)c1 [ABT-869]; details: top dose 1.024 µM; top dose inferred
Procedure: as §1

KU-55933 = compound: O=c1cc(-c2cccc3c2Sc2ccccc2S3)oc(N2CCOCC2)c1 [KU-55933]; details: top dose 10 µM
Procedure: as §1

GSK269962A = compound: CCn1c(-c2nonc2N)nc2cnc(Oc3cccc(NC(=O)c4ccc(OCCN5CCOCC5)cc4)c3)cc21 [GSK269962A]; details: top dose 5 µM; screen: GDSC drug entry 1192; top dose inferred
Procedure: as §1

(5Z)-7-Oxozeaenol = compound: COc1cc(O)c2c(c1)/C=C/C[C@H](O)[C@H](O)C(=O)/C=C\C[C@H](C)OC2=O [(5Z)-7-Oxozeaenol]; details: top dose 10 µM; top dose inferred
Procedure: as §1

Zibotentan = compound: COc1nc(C)cnc1NS(=O)(=O)c1cccnc1-c1ccc(-c2nnco2)cc1 [Zibotentan]; details: top dose 20 µM; top dose inferred
Procedure: as §1

QL-X-138 = compound: C=CC(=O)Nc1cc(-n2c(=O)ccc3cnc4ccc(-c5cn[nH]c5)cc4c32)ccc1C [QL-X-138]; details: top dose 10.24 µM; top dose inferred
Procedure: as §1

CP466722 = compound: COc1cc2ncnc(-n3nc(-c4ccccn4)nc3N)c2cc1OC [CP466722]; details: top dose 16 µM; top dose inferred
Procedure: as §1

ABT-888 = compound: C[C@]1(c2nc3c(C(N)=O)cccc3[nH]2)CCCN1 [ABT-888]; details: top dose 5 µM; top dose inferred
Procedure: as §1

MPS-1-IN-1 = compound: COc1cc(N2CCC(O)CC2)ccc1Nc1cc(Nc2ccccc2S(=O)(=O)C(C)C)c2cc[nH]c2n1 [MPS-1-IN-1]; details: top dose 20 µM; top dose inferred
Procedure: as §1

[1] = top dose 2.56 µM, screen: GDSC drug entry 154
[2] = top dose 10 µM, screen: GDSC drug entry 1241, top dose inferred

Q: Which AUC (Thapsigargin) does the source give for HCC-827 (lung adenocarcinoma, adherent) here?
A: 0.87

Q: And the IC50 (Thapsigargin)?
A: > 0.512 µM

Q: And the AUC (CHIR-99021; [1])?
A: 0.984

Q: And the IC50 (CHIR-99021; [1])?
A: > 2.56 µM

Q: What about the AUC (CHIR-99021; [2]) of the same cell line?
A: 0.934

Q: And the IC50 (CHIR-99021; [2])?
A: > 10 µM

Q: What about the AUC (ABT-869) of the same cell line?
A: 0.979

Q: What about the IC50 (ABT-869) of the same cell line?
A: > 1.02 µM

Q: And the AUC (KU-55933)?
A: 0.978

Q: And the IC50 (KU-55933)?
A: > 10 µM

Q: What about the AUC (GSK269962A) of the same cell line?
A: 0.927

Q: What about the IC50 (GSK269962A) of the same cell line?
A: > 5 µM

Q: And the AUC ((5Z)-7-Oxozeaenol)?
A: 0.822

Q: What about the IC50 ((5Z)-7-Oxozeaenol) of the same cell line?
A: 7.06 µM

Q: What about the AUC (Zibotentan) of the same cell line?
A: 0.982

Q: What about the IC50 (Zibotentan) of the same cell line?
A: > 20 µM

Q: And the AUC (QL-X-138)?
A: 0.76

Q: What about the IC50 (QL-X-138) of the same cell line?
A: 4.13 µM

Q: What about the AUC (CP466722) of the same cell line?
A: 0.915

Q: What about the IC50 (CP466722) of the same cell line?
A: > 16 µM

Q: What about the AUC (ABT-888) of the same cell line?
A: 0.974

Q: What about the IC50 (ABT-888) of the same cell line?
A: > 5 µM

Q: And the AUC (MPS-1-IN-1)?
A: 0.97

Q: And the IC50 (MPS-1-IN-1)?
A: > 20 µM

Q: For HCT-15 (large intestine, adherent), which AUC (Thapsigargin) is on record?
A: 0.704

Q: What about the IC50 (Thapsigargin) of the same cell line?
A: 0.125 µM

Q: And the AUC (CHIR-99021; [1])?
A: 0.974

Q: What about the IC50 (CHIR-99021; [1]) of the same cell line?
A: > 2.56 µM

Q: And the AUC (CHIR-99021; [2])?
A: 0.985

Q: What about the IC50 (CHIR-99021; [2]) of the same cell line?
A: > 10 µM

Q: What about the AUC (ABT-869) of the same cell line?
A: 0.978

Q: What about the IC50 (ABT-869) of the same cell line?
A: > 1.02 µM

Q: What about the AUC (KU-55933) of the same cell line?
A: 0.965

Q: And the IC50 (KU-55933)?
A: > 10 µM

Q: What about the AUC (GSK269962A) of the same cell line?
A: 0.96

Q: And the IC50 (GSK269962A)?
A: > 5 µM

Q: And the AUC ((5Z)-7-Oxozeaenol)?
A: 0.871

Q: And the IC50 ((5Z)-7-Oxozeaenol)?
A: > 10 µM

Q: What about the AUC (Zibotentan) of the same cell line?
A: 0.962

Q: And the IC50 (Zibotentan)?
A: > 20 µM

Q: And the AUC (QL-X-138)?
A: 0.899

Q: And the IC50 (QL-X-138)?
A: > 10.2 µM

Q: And the AUC (CP466722)?
A: 0.767

Q: And the IC50 (CP466722)?
A: 6.29 µM

Q: And the AUC (ABT-888)?
A: 0.985

Q: And the IC50 (ABT-888)?
A: > 5 µM

Q: What about the AUC (MPS-1-IN-1) of the same cell line?
A: 0.865

Q: And the IC50 (MPS-1-IN-1)?
A: 19.4 µM

Q: With HO-1-u-1 (head and neck, adherent) as the cell line, how does the AUC (Thapsigargin) read?
A: 0.3

Q: And the IC50 (Thapsigargin)?
A: 0.00903 µM

Q: And the AUC (CHIR-99021; [1])?
A: 0.988

Q: What about the IC50 (CHIR-99021; [1]) of the same cell line?
A: > 2.56 µM

Q: What about the AUC (CHIR-99021; [2]) of the same cell line?
A: 0.941

Q: And the IC50 (CHIR-99021; [2])?
A: > 10 µM

Q: What about the AUC (ABT-869) of the same cell line?
A: 0.984

Q: And the IC50 (ABT-869)?
A: > 1.02 µM

Q: What about the AUC (KU-55933) of the same cell line?
A: 0.973

Q: And the IC50 (KU-55933)?
A: > 10 µM

Q: And the AUC (GSK269962A)?
A: 0.9

Q: And the IC50 (GSK269962A)?
A: > 5 µM

Q: And the AUC ((5Z)-7-Oxozeaenol)?
A: 0.775

Q: And the IC50 ((5Z)-7-Oxozeaenol)?
A: 3.79 µM

Q: And the AUC (Zibotentan)?
A: 0.988

Q: And the IC50 (Zibotentan)?
A: > 20 µM

Q: And the AUC (QL-X-138)?
A: 0.852

Q: And the IC50 (QL-X-138)?
A: 7.42 µM

Q: What about the AUC (CP466722) of the same cell line?
A: 0.912

Q: What about the IC50 (CP466722) of the same cell line?
A: > 16 µM

Q: What about the AUC (ABT-888) of the same cell line?
A: 0.983

Q: What about the IC50 (ABT-888) of the same cell line?
A: > 5 µM

Q: And the AUC (MPS-1-IN-1)?
A: 0.93

Q: What about the IC50 (MPS-1-IN-1) of the same cell line?
A: > 20 µM

Q: What does the source list for Hep 3B2_1-7 (liver, adherent)?
A: AUC (Thapsigargin): 0.135; IC50 (Thapsigargin): 0.00228 µM; AUC (CHIR-99021; [1]): 0.987; IC50 (CHIR-99021; [1]): > 2.56 µM; AUC (CHIR-99021; [2]): 0.978; IC50 (CHIR-99021; [2]): > 10 µM; AUC (ABT-869): 0.982; IC50 (ABT-869): > 1.02 µM; AUC (KU-55933): 0.89; IC50 (KU-55933): > 10 µM; AUC (GSK269962A): 0.686; IC50 (GSK269962A): 1.03 µM; AUC ((5Z)-7-Oxozeaenol): 0.31; IC50 ((5Z)-7-Oxozeaenol): 0.184 µM; AUC (Zibotentan): 0.986; IC50 (Zibotentan): > 20 µM; AUC (QL-X-138): 0.913; IC50 (QL-X-138): > 10.2 µM; AUC (CP466722): 0.967; IC50 (CP466722): > 16 µM; AUC (ABT-888): 0.986; IC50 (ABT-888): > 5 µM; AUC (MPS-1-IN-1): 0.876; IC50 (MPS-1-IN-1): 19.8 µM

Q: Which AUC (Thapsigargin) does the source give for HuP-T3 (pancreas, adherent) here?
A: 0.418

Q: What about the IC50 (Thapsigargin) of the same cell line?
A: 0.0182 µM

Q: What about the AUC (CHIR-99021; [1]) of the same cell line?
A: 0.975

Q: And the IC50 (CHIR-99021; [1])?
A: > 2.56 µM

Q: And the AUC (CHIR-99021; [2])?
A: 0.935

Q: What about the IC50 (CHIR-99021; [2]) of the same cell line?
A: > 10 µM

Q: And the AUC (ABT-869)?
A: 0.981

Q: And the IC50 (ABT-869)?
A: > 1.02 µM

Q: And the AUC (KU-55933)?
A: 0.969

Q: And the IC50 (KU-55933)?
A: > 10 µM

Q: And the AUC (GSK269962A)?
A: 0.96

Q: And the IC50 (GSK269962A)?
A: > 5 µM

Q: What about the AUC ((5Z)-7-Oxozeaenol) of the same cell line?
A: 0.527

Q: And the IC50 ((5Z)-7-Oxozeaenol)?
A: 0.753 µM

Q: What about the AUC (Zibotentan) of the same cell line?
A: 0.979

Q: What about the IC50 (Zibotentan) of the same cell line?
A: > 20 µM

Q: What about the AUC (QL-X-138) of the same cell line?
A: 0.762

Q: What about the IC50 (QL-X-138) of the same cell line?
A: 4.46 µM

Q: What about the AUC (CP466722) of the same cell line?
A: 0.833

Q: What about the IC50 (CP466722) of the same cell line?
A: 13.7 µM

Q: And the AUC (ABT-888)?
A: 0.972

Q: And the IC50 (ABT-888)?
A: > 5 µM

Q: And the AUC (MPS-1-IN-1)?
A: 0.877

Q: And the IC50 (MPS-1-IN-1)?
A: > 20 µM

Q: Which results are given for JEG-3 (urogenital system, adherent)?
A: AUC (Thapsigargin): 0.287; IC50 (Thapsigargin): 0.00859 µM; AUC (CHIR-99021; [1]): 0.99; IC50 (CHIR-99021; [1]): > 2.56 µM; AUC (CHIR-99021; [2]): 0.99; IC50 (CHIR-99021; [2]): > 10 µM; AUC (ABT-869): 0.984; IC50 (ABT-869): > 1.02 µM; AUC (KU-55933): 0.981; IC50 (KU-55933): > 10 µM; AUC (GSK269962A): 0.937; IC50 (GSK269962A): > 5 µM; AUC ((5Z)-7-Oxozeaenol): 0.766; IC50 ((5Z)-7-Oxozeaenol): 3.33 µM; AUC (Zibotentan): 0.991; IC50 (Zibotentan): > 20 µM; AUC (QL-X-138): 0.988; IC50 (QL-X-138): > 10.2 µM; AUC (CP466722): 0.988; IC50 (CP466722): > 16 µM; AUC (ABT-888): 0.991; IC50 (ABT-888): > 5 µM; AUC (MPS-1-IN-1): 0.991; IC50 (MPS-1-IN-1): > 20 µM

A lower IC50 marks a more sensitive line; a fit beyond the top or the lowest dose is shown as a bound at that dose. For AUC the same curve is integrated over the 256-fold range of doses and scaled to a fraction; values near 1 show little effect. For part of these data: The top dose, if marked as inferred, was calculated from the reported fits. For part of these data: An entry number marks a drug with two screens in the source, which often give different values.
